Mutation enrichment score data for 20 molecules are collected here from the supplement of paper PMC11369174, “Proteome-scale characterisation of motif-based interactome rewiring by disease mutations” (Molecular Systems Biology, 2024).

The list shows a part of the results. The data scatter; read single values as rough.

PPIA_full-length__P62937_1_165, P62937, sequence (P62937 whole entry, looked up): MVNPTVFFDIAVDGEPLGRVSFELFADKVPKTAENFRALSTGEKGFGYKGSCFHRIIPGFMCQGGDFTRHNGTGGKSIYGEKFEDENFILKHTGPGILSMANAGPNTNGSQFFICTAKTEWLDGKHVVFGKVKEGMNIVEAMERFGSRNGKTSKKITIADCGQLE
USP7_MATH-TRAF__Q93009_53_206, sequence (chain, as listed by the source): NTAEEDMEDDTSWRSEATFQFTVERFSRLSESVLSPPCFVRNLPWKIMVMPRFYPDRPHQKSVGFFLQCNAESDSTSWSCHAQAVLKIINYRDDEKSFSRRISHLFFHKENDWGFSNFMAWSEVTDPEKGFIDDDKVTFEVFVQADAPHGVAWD

In the first experiment the target is T1, EIF3B_RRM__P55884_172_274.
T1 chain: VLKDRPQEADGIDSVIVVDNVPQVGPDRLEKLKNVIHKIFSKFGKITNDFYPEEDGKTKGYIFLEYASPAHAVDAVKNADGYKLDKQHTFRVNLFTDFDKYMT
In words: mutation enrichment score (mutant vs wild-type peptide binding to bait); baits are purified protein domains named by gene / domain / UniProt id / residues; peptides come from disordered regions of human proteins; higher = mutation enhances binding relative to wild type. As to conditions: number of wild-type / mutant comparisons summed (bounds the score): 6; paper call: no_effect; wild-type window: ….
On to LVGFSVSAALQVTQTLQWVVHNWTDLENSIVSVERMQDYAW [R1221H R1221H], for which the mutation enrichment score is -4.
Same read-out and setting: for MEPGPTAAQRRCSLPPWLPLWLLLWSGLALGA [C12W C12W] the value was 3; for DPVSEVPAVSQHPRTKSSRLEGSSLSSESARHKAVEFSSGA [Q1338E Q1338E], 1.

A further experiment concerns the target EIF4E_eIF4E__P06730_1_217, P06730. The description is as above. As to conditions: number of wild-type / mutant comparisons summed (bounds the score): 6; paper call: diminished; wild-type window: ….
As to LTLFVNGQPRPLESSQVKYLHRELIELRNKVNRLLDSLEPP [R106H R106H], the mutation enrichment score is -6.

Still in this experiment, the particulars now being: number of wild-type / mutant comparisons summed (bounds the score): 12; paper call: no_effect; wild-type window: ….
Turning to LTLFVNGQPRPLESSQVKYLCRELIELRNKVNRLLDSLEPP [R106C R106C], the mutation enrichment score turned out to be 0.52.

The target of a further experiment is T2, EPHA3_Pkinase__P29320_606_947.
T2 chain: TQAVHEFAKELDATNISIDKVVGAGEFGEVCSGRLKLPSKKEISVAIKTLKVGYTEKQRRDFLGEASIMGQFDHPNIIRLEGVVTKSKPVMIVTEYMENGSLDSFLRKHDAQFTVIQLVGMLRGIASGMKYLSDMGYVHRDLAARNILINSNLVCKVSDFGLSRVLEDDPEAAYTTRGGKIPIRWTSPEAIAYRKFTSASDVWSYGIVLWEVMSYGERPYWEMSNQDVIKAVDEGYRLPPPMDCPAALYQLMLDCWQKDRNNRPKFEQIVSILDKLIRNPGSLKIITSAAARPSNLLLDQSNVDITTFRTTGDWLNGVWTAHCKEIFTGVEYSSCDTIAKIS
The description is as above. The settings on record: number of wild-type / mutant comparisons summed (bounds the score): 6; paper call: no_effect; wild-type window: ….
Take PVGEFLLAGGRTKTWLVGNKPVTVTTSVGTGTRSLLGLDSG [L1066P L1066P]: the mutation enrichment score amounted to 1.
Same read-out and setting: for PHALYSHKPEVAQYTHTGLLLQTMLITDTTNLSALASLTPT [P519L P519L] the value was 2; for YLAEKGENDHFDTYADALWWRLITLTTIGYGDKYPQTWNGR [G271R G271R], 2; for LLASLIRGNRSNCALFSTNLYWLVSKLDRLEASSGILEVLY [D544Y D544Y], 1.
YRQVFERHYPGRADWLSHYWIPKWINATDPSARTLTHYKSA [M538I M538I]: the mutation enrichment score was -3.3.

The target in a further experiment is T1, EIF3B_RRM__P55884_172_274. Described as above. The settings on record: number of wild-type / mutant comparisons summed (bounds the score): 12; paper call: no_effect; wild-type window: ….
As to FENRKKEEEELVSLKDRIERCRAERAEQQRIRNEREKERQN [R140C R140C], the mutation enrichment score was -1.

The next experiment deals with T3, EPHB2_Pkinase__P29323_604_898.
T3 chain: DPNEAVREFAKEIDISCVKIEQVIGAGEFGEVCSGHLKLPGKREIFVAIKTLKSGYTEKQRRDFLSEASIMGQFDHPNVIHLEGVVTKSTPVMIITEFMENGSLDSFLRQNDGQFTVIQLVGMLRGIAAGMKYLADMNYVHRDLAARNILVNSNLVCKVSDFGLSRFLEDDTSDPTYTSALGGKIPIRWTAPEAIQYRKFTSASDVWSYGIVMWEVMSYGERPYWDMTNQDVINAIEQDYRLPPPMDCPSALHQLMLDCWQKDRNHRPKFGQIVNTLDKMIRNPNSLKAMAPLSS
Described as above. As to conditions: number of wild-type / mutant comparisons summed (bounds the score): 6; paper call: no_effect; wild-type window: ….
Take PHALYSHKPEVAQYTHTGLLLQTMLITDTTNLSALASLTPT [P519L P519L]: the mutation enrichment score turned out to be 3.
On the same count and under the same terms, for YLAEKGENDHFDTYADALWWRLITLTTIGYGDKYPQTWNGR [G271R G271R] the value was -1; for YRQVFERHYPGRADWLSHYWIPKWINATDPSARTLTHYKSA [M538I M538I], -1.5.

Another experiment deals with T4, EIF_DEAD__P60842_29_237.
T4 chain: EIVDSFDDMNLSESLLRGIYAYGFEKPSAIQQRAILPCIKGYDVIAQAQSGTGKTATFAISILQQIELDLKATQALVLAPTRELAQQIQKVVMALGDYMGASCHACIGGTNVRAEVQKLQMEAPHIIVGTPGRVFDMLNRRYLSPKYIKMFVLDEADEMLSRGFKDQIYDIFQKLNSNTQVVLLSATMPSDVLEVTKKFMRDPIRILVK
Described as above. As to conditions: number of wild-type / mutant comparisons summed (bounds the score): 12; paper call: no_effect; wild-type window: ….
Turning to GPGPGSPQRRAQQRAAPGEPDWMGRLWVTFSGKLRRIVDSK [G773D G773D], the mutation enrichment score came to 0.47.
As for STQSLPTVDTSAQAAPQTYAKYAISQPLEGAGATCPTGSEP [E62K E62K], the mutation enrichment score came to 0.
On the same count and under the same terms, the same measure for MLKPSLPFTSLLFLQLPLLGPGLNTTILTPNGNEDT [L16P L16P]: 0.

A further experiment addresses T5, PEX14_Pex14__O75381_16_84.
T5 chain: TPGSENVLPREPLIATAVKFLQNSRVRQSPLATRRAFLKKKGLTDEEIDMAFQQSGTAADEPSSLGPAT
The experiment is described as above. The settings on record: number of wild-type / mutant comparisons summed (bounds the score): 18; paper call: enhanced; wild-type window: ….
In the case of GPGPGSPQRRAQQRAAPGEPDWMGRLWVTFSGKLRRIVDSK [G773D G773D], the mutation enrichment score was determined as 12.

Another experiment deals with EZR_FERM_1_P15311_2_295. The description is as above. The settings on record: number of wild-type / mutant comparisons summed (bounds the score): 10; paper call: no_effect; wild-type window: ….
EZR_FERM_1_P15311_2_295, sequence (chain, as listed by the source): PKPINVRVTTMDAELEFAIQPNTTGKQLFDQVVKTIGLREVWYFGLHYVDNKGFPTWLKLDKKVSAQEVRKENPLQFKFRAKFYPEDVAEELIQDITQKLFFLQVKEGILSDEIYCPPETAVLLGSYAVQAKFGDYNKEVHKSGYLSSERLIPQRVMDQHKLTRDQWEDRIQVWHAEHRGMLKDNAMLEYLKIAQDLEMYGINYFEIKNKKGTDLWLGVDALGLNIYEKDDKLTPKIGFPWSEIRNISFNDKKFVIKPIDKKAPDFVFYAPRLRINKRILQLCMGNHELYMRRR
Turning to STQSLPTVDTSAQAAPQTYAKYAISQPLEGAGATCPTGSEP [E62K E62K], the mutation enrichment score is -5.

For another experiment, the target named is T6, MSN_FERM_1_P26038_1_322.
T6 chain: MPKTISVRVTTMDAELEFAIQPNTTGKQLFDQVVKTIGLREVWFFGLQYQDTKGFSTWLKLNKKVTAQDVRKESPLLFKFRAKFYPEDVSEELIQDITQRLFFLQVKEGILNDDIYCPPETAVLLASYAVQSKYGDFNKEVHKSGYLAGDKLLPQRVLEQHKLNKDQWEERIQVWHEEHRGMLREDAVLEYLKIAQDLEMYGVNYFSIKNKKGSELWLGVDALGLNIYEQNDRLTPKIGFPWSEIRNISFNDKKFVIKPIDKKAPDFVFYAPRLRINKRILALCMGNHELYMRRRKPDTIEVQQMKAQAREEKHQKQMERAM
Described as above. The settings on record: number of wild-type / mutant comparisons summed (bounds the score): 12; paper call: no_effect; wild-type window: ….
Regarding STQSLPTVDTSAQAAPQTYAKYAISQPLEGAGATCPTGSEP [E62K E62K], the mutation enrichment score was -3.

The next experiment has as its target PPIA_full-length__P62937_1_165, P62937. The description is as above. As to conditions: number of wild-type / mutant comparisons summed (bounds the score): 12; paper call: diminished; wild-type window: ….
Consider STQSLPTVDTSAQAAPQTYAKYAISQPLEGAGATCPTGSEP [E62K E62K], for which the mutation enrichment score was -7.

The next experiment concerns the target USP7_MATH-TRAF__Q93009_53_206. Described as above. As to conditions: number of wild-type / mutant comparisons summed (bounds the score): 10; paper call: no_effect; wild-type window: ….
With DPVSEVPAVSQHPRTKSSRLEGSSLSSESARHKAVEFSSGA [Q1338E Q1338E], the mutation enrichment score amounted to 3.

The next experiment addresses T4, EIF_DEAD__P60842_29_237. The experiment is described as above. The settings on record: number of wild-type / mutant comparisons summed (bounds the score): 6; paper call: no_effect; wild-type window: ….
Regarding KVKLEQQVDDLEGSLEQEKKARMDLERAKRKLEGDLKLTQE [V1044A V1044A], the mutation enrichment score was found to be 1.
Same read-out and setting: the same measure for TSGLPGDTALLLPPSPRPSPGVHLPTQPAADTYSEFHKHYA [R342G R342G]: -2.
The same measure, in the same setting: for ADQRQYEEWLFHTQQLLQMQPKVLEEQIGVHRKSRKALCAK [L3525P L3525P] the value was 4.
Same read-out and setting: the same measure for ALMDSSSSLSRNPPSYIAPYGCILRYAVSAALWLAIGIIQV [S728G S728G]: 1; for AGGAAPGRGAAGRARCLGPSVRGPG [A128V A128V]: 1.

A further experiment deals with NEDD4_WW_2_P46934_765_803. The description is as above. The settings on record: number of wild-type / mutant comparisons summed (bounds the score): 6; paper call: no_effect; wild-type window: ….
NEDD4_WW_2_P46934_765_803, sequence (chain, as listed by the source): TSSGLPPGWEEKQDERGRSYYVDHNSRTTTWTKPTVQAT
Take ALMDSSSSLSRNPPSYIAPYGCILRYAVSAALWLAIGIIQV [S728G S728G]: the mutation enrichment score was determined as 4.

The target in the next experiment is EIF4E_eIF4E__P06730_1_217, P06730. The description is as above. As to conditions: number of wild-type / mutant comparisons summed (bounds the score): 6; paper call: no_effect; wild-type window: ….
EIF4E_eIF4E__P06730_1_217, P06730, sequence (P06730 whole entry): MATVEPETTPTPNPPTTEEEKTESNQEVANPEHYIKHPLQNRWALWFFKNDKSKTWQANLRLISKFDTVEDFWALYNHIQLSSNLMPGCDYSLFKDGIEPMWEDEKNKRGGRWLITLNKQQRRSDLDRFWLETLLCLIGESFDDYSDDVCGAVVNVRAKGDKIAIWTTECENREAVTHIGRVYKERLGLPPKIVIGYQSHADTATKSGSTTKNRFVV
As to FIIIVFGFWAFGKHSAAADIISSLSEDQVPGPFLVMVLIQF [T2221I T2221I], the mutation enrichment score was 2.

The next experiment has as its target T7, G3BP2_NTF2_1_Q9UN86_1_139.
T7 chain: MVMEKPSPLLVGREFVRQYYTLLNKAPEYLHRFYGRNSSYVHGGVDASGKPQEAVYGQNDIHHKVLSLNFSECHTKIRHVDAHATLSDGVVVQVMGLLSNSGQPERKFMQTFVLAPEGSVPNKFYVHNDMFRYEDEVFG
The description is as above. The settings on record: number of wild-type / mutant comparisons summed (bounds the score): 12; paper call: no_effect; wild-type window: ….
Consider LLASLIRGNRSNCALFSTNLYWLVSKLDRLEASSGILEVLY [D544Y D544Y], for which the mutation enrichment score came to 0.

The target in the next experiment is REPS1___Q96D71_226_314. The description is as above. As to conditions: number of wild-type / mutant comparisons summed (bounds the score): 6; paper call: no_effect; wild-type window: ….
Consider YRQVFERHYPGRADWLSHYWIPKWINATDPSARTLTHYKSA [M538I M538I], for which the mutation enrichment score was -2.
